Test results taken from paper PMC4336329 (PLoS ONE, 2015).
The campaign covered roughly 310,000 compounds. About 14,000 (4.5%) showed an effect of 50% or more. Effects have a minus sign here. The list shows a part of the results.

target: human ether-à-go-go-related gene (hERG) potassium channel (human, UniProt Q12809); test: primary screen, population patch clamp on CHO cells stably expressing hERG
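Also: peak tail current of the secondary pulse compared with the same well before compound.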

human ether-à-go-go-related gene (hERG) potassium channel, sequence (Q12809 whole entry, looked up): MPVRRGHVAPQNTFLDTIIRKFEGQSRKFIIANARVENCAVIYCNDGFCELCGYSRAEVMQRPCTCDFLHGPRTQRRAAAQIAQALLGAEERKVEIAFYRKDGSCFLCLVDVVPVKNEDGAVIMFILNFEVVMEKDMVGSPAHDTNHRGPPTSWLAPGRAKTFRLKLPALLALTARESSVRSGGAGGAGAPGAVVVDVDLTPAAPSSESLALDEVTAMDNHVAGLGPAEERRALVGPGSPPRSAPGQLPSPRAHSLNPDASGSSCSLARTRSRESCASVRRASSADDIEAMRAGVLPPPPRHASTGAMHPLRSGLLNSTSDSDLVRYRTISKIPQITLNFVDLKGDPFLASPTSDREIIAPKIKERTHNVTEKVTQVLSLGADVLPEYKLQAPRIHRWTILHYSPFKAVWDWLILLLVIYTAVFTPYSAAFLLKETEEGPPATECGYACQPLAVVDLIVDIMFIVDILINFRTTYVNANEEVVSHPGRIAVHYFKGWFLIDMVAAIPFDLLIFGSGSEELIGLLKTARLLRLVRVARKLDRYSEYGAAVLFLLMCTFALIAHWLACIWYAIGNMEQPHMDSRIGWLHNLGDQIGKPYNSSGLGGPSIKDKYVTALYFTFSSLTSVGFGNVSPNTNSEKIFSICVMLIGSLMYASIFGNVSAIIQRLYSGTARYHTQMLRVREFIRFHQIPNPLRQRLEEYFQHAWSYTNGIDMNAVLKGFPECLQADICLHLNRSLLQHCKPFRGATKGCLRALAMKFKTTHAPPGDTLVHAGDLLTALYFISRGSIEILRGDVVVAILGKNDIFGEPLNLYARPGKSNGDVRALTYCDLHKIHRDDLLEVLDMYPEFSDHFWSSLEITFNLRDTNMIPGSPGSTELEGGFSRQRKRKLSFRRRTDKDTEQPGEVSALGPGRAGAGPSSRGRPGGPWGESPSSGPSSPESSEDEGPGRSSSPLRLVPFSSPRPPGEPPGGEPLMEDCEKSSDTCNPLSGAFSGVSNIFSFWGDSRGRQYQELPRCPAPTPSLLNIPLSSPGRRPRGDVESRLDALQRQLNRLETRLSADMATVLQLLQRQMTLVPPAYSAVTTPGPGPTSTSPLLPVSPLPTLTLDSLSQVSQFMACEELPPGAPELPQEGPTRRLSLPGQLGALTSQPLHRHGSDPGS

| SMILES | hERG current change (%, negative = inhibition) at 10uM |
| --- | --- |
| CC(C)Cn1c(N)c(C(=O)COC(=O)c2ccc3ccccc3n2)c(=O)n(C)c1=O | -59.9% |
| COc1ccc(/C(O)=C2/C(=O)C(=O)N(c3ccccn3)C2c2ccc(OC)c(OC)c2)cc1 (stereo not drawn) | -0.694% |
| COc1ccc(NC(=O)CSCC(=O)Nc2ccc(S(=O)(=O)N3CCOCC3)cc2)cc1 | -11.2% |
| COC(=O)C1=C(C)N(CCc2ccccc2)C(=O)C1 | 2.86% |
| Cc1ccc2c(c1)N(C(=O)CCC(=O)NCc1cccnc1)CC(C)O2 (stereo not drawn) | -30.8% |
| CCOC(=O)C1(CC2CC2)CCN(Cc2cn[nH]c2-c2ccccc2)CC1 | -79.5% |
| CCCn1c(N)c(N(CCOC)C(=O)c2cc3ccccc3cc2OC)c(=O)[nH]c1=O | 5.95% |
| N#C/C(=N\Nc1ccc(Cl)cc1)C(=O)c1ccsc1 | 32.4% |
| COc1ccccc1C(=O)N1CCN(CCc2ccccc2)CC1 | -48.8% |
| CCc1cc2c(cc3c(=O)n(CC(=O)N4CCN(C)CC4)ncn32)s1 | -14.3% |
| COc1ccc(-c2[nH]c(-c3cccc(OC)c3)nc2SCC(=O)NC2CCCC2)cc1 | -40% |
| Cn1ncc(Br)c1C(=O)N1CCN(C(=O)c2ccco2)CC1 | -1.4% |
| Fc1ccccc1NC(=S)Nc1cccc2cnccc12 | 46.8% |
| COc1ccc(Oc2c(C)oc3cc(OC(=O)N4CCOCC4)ccc3c2=O)cc1 | -2.02% |
| Cc1cc(C)n2nc(SCC(=O)N(CC(C)C)c3c(N)n(CC(C)C)c(=O)[nH]c3=O)nc2n1 | 11.2% |
| Clc1ccccc1-c1nnc2sc(-c3ccncc3)nn12 | -3.1% |
| CC(C)=CC(=O)N1CC[C@@H](N2CCN(c3ccccc3F)CC2)[C@H](O)C1 | 1.23% |
| Cc1cccc(NC(=S)Nc2ccc(Oc3ccccc3)cc2)n1 | 13.1% |
| O=C(Cc1cn2ccsc2n1)NCCc1ccc(F)cc1 | 10.6% |
| COc1ccc(Cl)cc1N(CC(=O)Nc1ccc2c(c1)OCO2)S(C)(=O)=O | -24% |
| O=C1CCC(/C=C/c2ccccc2)=NN1Cc1ccccc1Cl | 10.5% |
| CCOc1ccc(NC(=O)CN2CCN(CC(=O)Nc3ccc(F)c(F)c3)CC2)cc1 | -78.3% |

| SMILES | hERG current change (%, negative = inhibition) at 10uM |
| --- | --- |
| CCCCCOc1ccc(C(=O)Nc2ccc(N3CCOCC3)cc2N2CCOCC2)cc1 | 2.67% |
| CC(C)(C)n1nnnc1C(c1cccc(C#N)c1)N1CCCCCC1 (stereo not drawn) | -4.75% |
| COc1cccc(-n2c(SCC(N)=O)nc3ccccc3c2=O)c1 | -29.6% |
| COc1ccc(C(=O)Nc2ccc(C(=O)N3CCCCC3C)cc2)c(OC)c1OC (stereo not drawn) | -24.2% |
| CCN(CC)S(=O)(=O)c1ccc(Cl)c(C(=O)Oc2cccnc2)c1 | -36.8% |
| CCCC(=O)NCCc1cc2ccc(OC)cc2[nH]c1=O | 1.74% |
| Cc1cc(NC(=O)COC(=O)c2cc([N+](=O)[O-])ccc2N2CCOCC2)ccc1Br | -4.03% |
| CC(C)(O)C#Cc1ccc(CN2CCN(CCc3ccccc3)C(CCO)C2)s1 (stereo not drawn) | -30.7% |
| Cc1nnc(SCC(=O)Nc2cccc(Cl)c2)n1CC1CCCO1 (stereo not drawn) | -7.41% |
| Cc1ccccc1NC(=O)NC1(C(=O)NCC2CCCO2)CCCCC1 (stereo not drawn) | 17.5% |
| COc1ccc(-n2cnnc2SCC(=O)c2ccc(S(=O)(=O)N3CCOCC3)cc2)cc1 | -33.3% |
| CCCCNc1ccc(C(CC(N)=O)NC(=O)Cc2cccc3ccccc23)cc1[N+](=O)[O-] (stereo not drawn) | 4.73% |
| COC(=O)[C@@H](C)NC(=O)c1ccc2oc(CCc3ccccc3)nc2c1 | -3.54% |
| CCOC(=O)c1ccc(N2CCN(c3ccc(F)cc3)CC2)c(NC(=O)Nc2cccc(OC)c2)c1 | 12.1% |
| COc1cc(C(=O)NCCC(C)C)c([N+](=O)[O-])cc1OC | -7.18% |
| COc1cc(OC)cc(C(=O)N2CCCC(Nc3ccc(F)cc3)C2)c1 (stereo not drawn) | -4.72% |
| Cc1cccc(C(=O)NNC(=O)c2ccc(Cl)cc2)c1O | -1.78% |
| O=C(Nc1cccc(F)c1)C1C2C=CC3(CN(CCCN4CCOCC4)C(=O)C13)O2 (stereo not drawn) | -8.87% |
| Cc1ccc(-c2n[nH]c(=O)c3ccccc23)c(C)c1 | 17.3% |
| Cc1cc(C)c(O)c(-c2cc(C(=O)NCCc3ccc(S(N)(=O)=O)cc3)[nH]n2)c1 | 21.3% |
| O=[N+]([O-])c1ccc(Oc2ccc(S(=O)(=O)Nc3ccccc3)cc2)cc1 | -48.8% |
| O=C1CCN(CCCc2ccccc2)CCN1[C@H](CO)c1ccccc1 | -29.7% |

| SMILES | hERG current change (%, negative = inhibition) at 10uM |
| --- | --- |
| CSc1cccc(NC(=S)N2CCC(N(C)C3CCCC3)CC2)c1 | -29.2% |
| CCCCc1nc2cc(C(=O)NCc3nccn3CC)ccc2o1 | -16.5% |
| Cc1cc(NC(=O)C(C)Oc2ccc(C(C)(C)C)cc2)no1 (stereo not drawn) | -0.909% |
| Cc1cccc2c(N=O)c(O)n(CCc3ccccc3)c12 | 20.2% |
| CCCCn1c(N)c(N(CC(C)C)C(=O)c2ccc(Br)s2)c(=O)[nH]c1=O | -45.9% |
| COc1cc(C(=O)NC(=S)Nc2ccc([N+](=O)[O-])cc2C)cc(OC)c1OC | 1.65% |
| CCOc1ccc(CCNC(=O)Cc2ccc(S(=O)(=O)N3CCOCC3)s2)cc1OCC | -23.6% |
| Cc1cc(C)c(S(=O)(=O)NCC(=O)O)cc1C | 7.17% |
| COC(=O)C1=C(c2ccc(C(C)=O)cc2)C[C@@H]2CC[C@H]1N2C(=O)NC1CC1 | 19.8% |
| CCC(=O)Nc1c(-c2ccc3ccccc3c2)nc2ccccn12 | -16% |
| COc1ccc(C2=Nn3c([n+](C)c4ccccc43)SC2)cc1.[Br-] | -44.2% |
| CNC(=O)CSc1nnc(-c2cccnc2)n1CCc1ccccc1 | 14.1% |
| COc1cccc(C(C)NC(=S)NCc2ccc(F)cc2)c1 (stereo not drawn) | -9.88% |
| CS(=O)(=O)N(CC(=O)N1CCCC1)c1cccc(Cl)c1Cl | -2.02% |
| CC(C)C(=O)N1CCN(CCN=Cc2c(O)n(C)c(=O)n(C)c2=O)CC1 | -7.85% |
| COc1ccc(Cl)cc1NC(=O)CCc1nc(-c2ccccc2F)no1 | 9.34% |
| COc1ccc(-c2noc(CN(C)Cc3ccc(C)o3)n2)cc1 | -12.2% |
| O=C(O)c1ccccc1Nc1cc(Cl)c2nonc2c1[N+](=O)[O-] | 20.4% |
| CC(C)c1ccc(NC(=O)CN2C(=O)NC3(CCCC3)C2=O)cc1 | 5.63% |
| COc1ccc(OCCCC(=O)N2CCCc3ccccc32)cc1 | -18.9% |
| Cc1ccsc1C1CC(=O)Nc2ccccc2S1 (stereo not drawn) | -3.68% |
| CCCCN(C(=O)Nc1ccc(OCC)cc1)C1CCN(C(C)=O)CC1 | -22.2% |

| SMILES | hERG current change (%, negative = inhibition) at 10uM |
| --- | --- |
| COc1ccc2[nH]c3c(NCCN(C(C)C)C(C)C)ncnc3c2c1 | -70.7% |
| CN(C)c1nc2ncn(Cc3ccccc3)c2c(=O)[nH]1 | -2.7% |
| Nc1cc(S(=O)(=O)O)cc([N+](=O)[O-])c1O | 19.7% |
| CCN1CCN(C(=O)/C=C/c2ccc3c(c2)OCO3)CC1 | 2.46% |
| CCN(CC(=O)Nc1c(F)cccc1F)C(=O)CSCC(=O)Nc1cc(C)on1 | -2.51% |
| NCC(=O)NNC(=O)OCC1c2ccccc2-c2ccccc21 | 10.3% |
| COc1cccc(NC(=O)COC(=O)Cc2ccccc2[N+](=O)[O-])c1 | 6.48% |
| COc1ccc2c(=O)c3c(=O)n(Cc4ccco4)c(-c4ccco4)nc3oc2c1 | -62.4% |
| Cc1ccccc1/C=C1\C(=O)Nc2ccc(F)cc21 | 8.41% |
| COC(=O)C(C)n1nnc2sc(-c3ccccc3)cc2c1=O (stereo not drawn) | -27.2% |
| Cc1cc(C)n(C(=O)c2ccc(NC(=O)CC(C)C)cc2)n1 | -8.44% |
| Oc1ccc2ccccc2c1/C=N/c1nc2c(s1)CCCC2 | 13.2% |
| Cc1ccc(S(=O)(=O)c2nc(NCCCn3ccnc3)sc2Cl)cc1 | -78.6% |
| COc1ccccc1C(=O)Nc1ccccc1N1CCN(C(=O)c2ccc(Cl)cc2)CC1 | -82.1% |
| COc1ccc(CCNC(=O)CN(c2ccccc2)S(C)(=O)=O)cc1 | 27% |
| O=c1c2c3c(sc2ncn1/N=C/c1ccc([N+](=O)[O-])o1)CCCC3 | 12.1% |
| CNC(=O)c1ccc(Nc2nnc(-c3ccc(C)c(S(=O)(=O)NCC4CCCO4)c3)c3ccccc23)cc1 (stereo not drawn) | -1.83% |
| CN(C)c1ccc(P(=O)(OCc2ccccc2)C(O)c2ccc(Cl)cc2)cc1 (stereo not drawn) | 9.96% |
| O=c1[nH]c(=O)c2nc(-c3ccc(Cl)cc3)cnc2[nH]1 | 22.3% |
| O=[N+]([O-])c1ccc(/C=C2\CCC(C3=CCCC3)=C2N2CCOCC2)cc1 | -33.7% |
| O=C(Nc1cc(S(=O)(=O)N2CCOCC2)ccc1N1CCCCC1)c1cc(-c2ccccn2)nc2ccccc12 | 0.703% |
